Experimental data taken from PubChem BioAssay AID485313 (National Center for Advancing Translational Sciences (NCATS), 2010).
Screen size: about 320,000 compounds; about 7,600 (2.4%) were called active. The shares of active, inactive and inconclusive entries below differ from those in the screen. The call rests on the fitted dose curve; in most records, active means well fitted activation curve with a large enough effect; inconclusive means small, poorly fitted or top-dose-only effect; inactive means no such curve, though single readings can be large or run the other way. Potencies of inconclusive entries are left out as doubtful fits.

Test: qHTS Assay for NPC1 Promoter Activators; further: nearly all actives have a fitted effect of over 60% in size;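 on activation: reporter is driven by a mutant NPC1 promoter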
Details: Huh7 NPC1 promoter luciferase reporter, 24 h; series mostly up to 9.22 µM
Method in brief: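 Quantitative HTS used a cell-based reporter: Huh7 cells stably bearing the NPC1 promoter upstream of luciferase were treated with compounds for 24 h, and promoter activation was read as luminescence.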
Potency means the concentration at half of the fitted maximal effect; tags describe the fitted curve by direction and shape.

| Compound | Potency |
| --- | --- |
| CC(C)(C)n1ncc2c(=O)n(CC(=O)NCc3ccccc3)cnc21 | active: 0.447 µM |
| O=C(Nc1cccc(F)c1)N1CCC(c2ccccc2)CC1 | inconclusive [activator, single point] |
| COc1ccccc1CCNC(=O)C1CCN(C(=O)/C=C/c2ccccc2)CC1 | inconclusive [activator, partial curve] |
| Cc1ccc(NC(=O)/C(=C\c2ccco2)NC(=O)c2ccco2)cc1 | inactive |
| O=C(Nc1nc2ccccc2[nH]1)c1ccccc1 | inconclusive [activator, single point] |
| COc1cccc(NC(=O)Nc2ccc(C)c(Cl)c2)c1 | inconclusive [activator, partial curve] |
| S=c1[nH]ncn1/N=C/c1ccc(N2CCOCC2)cc1 | active: 3.98 µM |
| O=S(=O)(Nc1ccc2nc(-c3ccco3)[nH]c2c1)c1ccccc1 | inconclusive [activator, single point] |
| COc1ccc2c(c1)O/C(=C\c1sccc1C)C2=O | inconclusive [activator, partial curve] |
| CN(C)CCCN(C(=O)c1cccs1)c1nc(-c2ccccc2)cs1 | inactive |
| CCC(C)C(=O)Nc1nc2ccc(S(C)(=O)=O)cc2s1 (centres undefined) | inactive |
| O=C(O)c1cc(N/N=C/c2ccc(-c3ccccc3)cc2)ccc1Cl | active: 0.0891 µM |
| S=C(c1ccc(-c2ccc(Cl)cc2Cl)o1)N1CCCCC1 | inconclusive [activator, partial curve] |
| Oc1ccc(/C=C/c2ccc3ccccc3n2)cc1 | inconclusive [activator, single point] |
| COc1ccc(-c2nc(-c3ccncc3)no2)c(OC)c1 | inconclusive [activator, partial curve, poor fit] |
| COc1ccc(CN2CCNC(=O)C2CC(=O)N(C)CC2CCOCC2)cc1C (centres undefined) | inactive |
| Cc1ccc(-c2cn3nc(C)c(C)nc3n2)cc1 | inconclusive [activator, full curve] |
| COC(=O)c1c(NC(=O)CN2CCN(Cc3ccc4c(c3)OCO4)CC2)sc(C)c1C | inactive |
| N#Cc1ccc(CO/N=C/c2ccccc2)cc1 | inconclusive [activator, partial curve] |
| COc1ccc(OC)c(CNC(=O)C2CCC(=O)N2C(C)C)c1 (centres undefined) | inactive |
| COc1ccccc1COC(=O)N/C=C/c1ccco1 | inconclusive [activator, single point] |
| CCOc1cc(/C=C2\COc3ccccc3C2=O)cc(Br)c1OCC(=O)N(C)C | inactive |
| N/C(=N\N=C\c1cccc([N+](=O)[O-])c1)c1nonc1N | inconclusive [activator, partial curve] |
| COc1cc(/C=C2\CCc3c2nc2ccccc2c3C(=O)O)cc(OC)c1OC | active: 2 µM |
